Laboratory results taken from article PMC4336329 (PLoS ONE, 2015).
Screen size: about 310,000 compounds; about 2,200 (0.71%) showed an effect of 50% or more. Effects have a minus sign here. The list shows a part of the results.

These compounds were tested against human ether-à-go-go-related gene (hERG) potassium channel (human, UniProt Q12809) (assay: primary screen, population patch clamp on CHO cells stably expressing hERG).
Chain of human ether-à-go-go-related gene (hERG) potassium channel (Q12809 whole entry, looked up): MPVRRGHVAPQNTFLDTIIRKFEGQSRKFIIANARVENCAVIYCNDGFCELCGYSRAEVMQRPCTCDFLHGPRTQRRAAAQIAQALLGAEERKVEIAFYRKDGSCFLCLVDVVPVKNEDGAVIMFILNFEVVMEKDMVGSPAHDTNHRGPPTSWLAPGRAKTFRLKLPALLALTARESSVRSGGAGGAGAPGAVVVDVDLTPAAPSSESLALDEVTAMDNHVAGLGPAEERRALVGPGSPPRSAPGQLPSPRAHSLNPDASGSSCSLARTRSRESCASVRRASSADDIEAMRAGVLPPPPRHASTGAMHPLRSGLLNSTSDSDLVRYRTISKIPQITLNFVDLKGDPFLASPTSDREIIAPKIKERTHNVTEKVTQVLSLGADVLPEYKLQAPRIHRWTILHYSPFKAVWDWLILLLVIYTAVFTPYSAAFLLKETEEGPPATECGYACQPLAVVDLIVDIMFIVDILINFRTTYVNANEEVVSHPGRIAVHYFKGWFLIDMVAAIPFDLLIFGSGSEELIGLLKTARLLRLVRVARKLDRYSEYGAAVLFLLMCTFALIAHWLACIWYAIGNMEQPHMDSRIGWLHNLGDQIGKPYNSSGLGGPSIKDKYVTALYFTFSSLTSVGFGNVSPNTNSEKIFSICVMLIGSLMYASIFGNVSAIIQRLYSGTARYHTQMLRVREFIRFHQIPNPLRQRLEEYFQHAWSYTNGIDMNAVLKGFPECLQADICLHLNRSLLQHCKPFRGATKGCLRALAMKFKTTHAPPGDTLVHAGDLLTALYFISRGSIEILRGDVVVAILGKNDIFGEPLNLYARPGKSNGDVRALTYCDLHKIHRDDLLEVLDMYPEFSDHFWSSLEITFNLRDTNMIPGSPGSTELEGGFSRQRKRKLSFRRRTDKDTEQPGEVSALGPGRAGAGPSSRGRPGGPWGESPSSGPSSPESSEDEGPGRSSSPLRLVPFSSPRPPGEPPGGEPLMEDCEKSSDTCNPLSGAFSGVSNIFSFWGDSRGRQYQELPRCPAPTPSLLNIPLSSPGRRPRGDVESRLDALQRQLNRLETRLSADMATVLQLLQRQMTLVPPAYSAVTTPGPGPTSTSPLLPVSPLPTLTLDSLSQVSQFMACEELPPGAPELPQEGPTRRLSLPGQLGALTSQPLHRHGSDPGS

Structure (SMILES) | hERG current change (%, negative = inhibition) at 1uM
O=C(CNCc1cccs1)Nc1ccc(N2CCCCCC2)cc1.O=C(O)C(=O)O | 3.38%
CCc1cc2c(=O)[nH]c(N3CCCC3)nc2s1 | 7.46%
CC(C)(C)c1ccc(COc2ccsc2C(=O)O)cc1 | 5.85%
CC(C)C1OC2c3cccc4cccc(c34)C2N1c1ccccc1 (stereo not drawn) | 18.8%
Cc1cc(OCC(=O)NCCO)cc(C)c1Cl | 8.17%
CCOC(=O)c1cccc(Nc2ncnc3ccccc23)c1.Cl | 2.2%
N#CCOC(=O)c1cc(S(=O)(=O)N2CCCCC2)ccc1N1CCOCC1 | 3.02%
COC(=O)C1=C(c2cc3ccccc3s2)C[C@@H]2CC[C@H]1N2C(=O)N1CCCC1 | 6%
CCOc1cc(/C=N\NC(=O)c2ccc(C)nc2)cc([N+](=O)[O-])c1O | -3.87%
OCC[C@@H]1C[C@@H](O)[C@H](O)[C@]2(Cc3ccccc3CCO2)O1 | 14.3%
Cc1c(Cl)cccc1NC(=O)CNCc1ccccc1F.O=C(O)C(=O)O | 16.5%
Cc1cccc(C(=O)NC(=S)Nc2ccc3[nH]c(=O)[nH]c3c2)c1 | 10.7%
O=C(Cc1cccs1)NCc1cccc(CNC(=O)Cc2cccs2)c1 | 18.4%
O=C(CN1CCOCCOCCN(CC(=O)Nc2ccccc2)CCOCC1)Nc1ccccc1 | -5.34%
O=C(NCCNS(=O)(=O)c1ccccc1)c1ccc([N+](=O)[O-])cc1 | 8.99%
O=C(CSc1ccc(-c2ccc(Br)cc2)nn1)N1CCOCC1 | 8.33%
COc1ccc(/C=C2/S/C(=N/S(=O)(=O)Cc3ccccc3)NC2=O)cc1OC | 4.21%
CC(C)CNS(=O)(=O)c1ccc(OCC(=O)NCc2ccco2)cc1 | 12.2%
CCC1(C)Cc2c(sc3nc(NN)n(C)c(=O)c23)CO1 (stereo not drawn) | 9.17%
COC(=O)c1c(NC(=O)c2ccc(C)c(S(=O)(=O)Nc3ccccc3C)c2)sc2c1CCCC2 | -6.38%
Cc1nn(-c2ccccc2)c(Cl)c1CN(C(=O)CCl)c1ccc(Cl)cc1 | 4.08%
COc1ccc(C(=O)NCC2CCCN2S(=O)(=O)c2cccs2)cc1 (stereo not drawn) | 10.4%

Structure (SMILES) | hERG current change (%, negative = inhibition) at 1uM
COc1ccc(OC)c(Nc2nc(-c3ccccc3O)nc3ccccc23)c1 | 12.6%
O=C(Nc1nnc(C2CCCC2)s1)C1CCN(S(=O)(=O)c2ccc(Cl)cc2)CC1 | 16.9%
COc1cc(C(=O)NNC(=S)NCc2ccco2)cc(OC)c1OC | 16.9%
CC(C)CN1CCN(Cc2ccc3ncccc3c2)CC1CCO (stereo not drawn) | 4.26%
CCN1C(=O)C(=Cc2ccc(C)s2)C(=O)N(CC)C1=S | 8.29%
Cc1ccc(-c2nc(C3CCCN(S(=O)(=O)c4ccc(C(F)(F)F)cc4)C3)no2)cc1 (stereo not drawn) | 4.01%
CCCc1ccc2oc(C(=O)N3CCN(CCC(N)=O)CC3)c(C)c2c1 | 7.88%
CC#CC(=O)NCC1(N(C)Cc2ccccc2)Cc2ccccc2C1 | 9.72%
COC(=O)C1CSC(C(=O)OC)N1C(=O)CN1CC(C)OC(C)C1 (stereo not drawn) | -4.93%
CN1C2C=C(N(CCc3c[nH]c4ccccc34)C(=O)c3ccc(Cl)cc3)CC1CC2.Cl (stereo not drawn) | -41.4%
CCOC(=O)c1c(C)[nH]c(C)c1C(=O)CSc1nc2ccccc2n1CCOC | 7.02%
Cc1cc(C)cc(N(C(C)C(=O)NC2CCCC2)S(C)(=O)=O)c1 (stereo not drawn) | 8.62%
O=C(c1cc(-c2ccc(Cl)cc2)on1)N1CCN(c2ccc(F)cc2)CC1 | 11.9%
Cc1ccc2nc(SCC(=O)N3c4ccccc4CC3C)c(C)cc2c1 (stereo not drawn) | 11.4%
CCCS(=O)(=O)c1nc(S(=O)(=O)c2ccc(C)cc2)c(NCCN2CCOCC2)s1 | 10.7%
Cn1cc(CNC(=O)c2ccc3nc(Cc4ccccc4F)oc3c2)cn1 | 13.2%
CCOc1ccccc1C(=O)N1c2ccccc2Sc2ccccc21 | 8.01%
COc1ccccc1CC(=O)NC1CC(C)(C)NC(C)(C)C1.Cl | -1.09%
CCc1nc2cccnc2n1-c1ccc(C(=O)O)cc1 | 7.99%
CCCCn1c2ccc(F)cc2c2nnc(SCCN3CCOCC3)nc21 | -8.43%
COc1ccc(NC(=O)CSc2nnc(-c3ccc(C)cc3)n2N)cc1 | 8.38%
CN(C)C/C(Cl)=C(\Cl)c1ccccc1 | 11.8%

Structure (SMILES) | hERG current change (%, negative = inhibition) at 1uM
Cc1cc(C)cc(Nc2ccc(C(=O)O)cc2N)c1 | 11.5%
NS(=O)(=O)c1ccc(CCNC(=O)CSc2nnc3ccccn23)cc1 | 15.3%
CC(NS(=O)(=O)c1ccc(CCC(=O)NCC2CCCO2)cc1)c1ccccc1 (stereo not drawn) | 11.6%
COc1cc(C(=O)Nc2ccccc2N2CCOCC2)ccc1OCc1c(C)noc1C | 3.39%
O=C(CCNC(=O)C1CCN(S(=O)(=O)c2ccc(F)cc2)CC1)NCc1ccccc1 | 14%
CCOc1ccc(-c2nnc(SCC(=O)N3CCNC3=O)o2)cc1 | 19.9%
Cc1cc(OCC(=O)N2CCN(c3cccc(Cl)c3)CC2)c2c(C)c(C)c(=O)oc2c1 | 2.91%
O=C(C1COc2ccccc2O1)N1CCN(Cc2ccccc2)CC1 (stereo not drawn) | 7.8%
C/C(=N\O)C(C)(C)Nc1cccc(Br)c1 | 14.3%
COc1ccc(-n2c(SCC(N)=O)nc3nc4c(cc3c2=O)COC(C)(C)C4)cc1 | 12.9%
COc1ccc(N=Nc2c(O)[nH]c(=S)[nH]c2=O)cc1 | 3.05%
O=C(O)CN(c1ccccn1)S(=O)(=O)c1ccccc1 | -0.863%
O=C(O)c1ccc(N2C(=O)CC(Cc3ccccc3)C2=O)cc1 (stereo not drawn) | 11.6%
CCS(=O)(=O)c1nc(S(=O)(=O)c2ccc(Cl)cc2)c(NCCCN2CCOCC2)s1 | 8.39%
O=C(Nc1ccc(-c2nc3ccccc3s2)c(O)c1)C1=COCCO1 | -36.8%
CCCCc1noc2c1/C(=N\O)CC(c1ccccc1)C2 (stereo not drawn) | 9.36%
CC(NC(=O)c1ccc2c(c1)OCO2)c1ccccc1 (stereo not drawn) | 11.3%
O=C(c1ccccc1)N1CCN(c2ncnc3c2cnn3-c2ccccc2)CC1 | 0.304%
CN(Cc1ccccc1)c1nc2c(c(=O)[nH]c(=O)n2C)n1Cc1ccccc1 | -0.783%
CC(=O)c1cccc(NC(=O)COC(=O)C2=COCCO2)c1 | 5.89%
Cc1ccc(CN(C)C(=O)c2cccc(S(=O)(=O)N3CCCC3)c2)cc1 | 9.28%
O=C1CC[C@H](O)CCN1[C@H](CSc1ccc(Br)cc1)Cc1ccccc1 | 10.3%

Structure (SMILES) | hERG current change (%, negative = inhibition) at 1uM
Cc1ccc(C)c(S(=O)(=O)N2CCCN(C)CC2)c1 | 6.2%
COc1ccc(CCNC(=O)c2ccc(CNS(=O)(=O)c3ccc(C(C)(C)C)cc3)cc2)cc1OC | 8.5%
COc1ccc([N+](=O)[O-])cc1N(CC(=O)O)S(C)(=O)=O | 14.7%
COc1ccc(O)c(-c2cc(-c3cccc(Br)c3)n[nH]2)c1 | 7.15%
CC(CCc1ccccc1)NC(=O)CNC(=O)c1ccccc1Br (stereo not drawn) | 8.29%
O=C(CCC(=O)c1ccc(F)cc1)Nc1cccc(C(F)(F)F)c1 | 13.1%
CS(=O)(=O)N1CCCC(C(=O)NCCN2CCC(Cc3ccccc3)CC2)C1 (stereo not drawn) | 4.48%
O=C(COC(=O)Cc1ccc(Br)cc1)NC1CCCCC1 | 6.19%
CCOC(=O)N1CCc2c(sc3nc4n(c(=O)c23)N=C(c2ccc(OC)cc2)CS4)C1 | 13.3%
CC1(C)CC(=O)C2=C(C1)N(CC1CCCO1)C(=O)C2(NC(=O)c1cccnc1)C(F)(F)F (stereo not drawn) | 6.32%
Cc1cccc(Cl)c1NC(=S)N1CCN(c2ccc([N+](=O)[O-])cn2)CC1 | -0.825%
Br.COc1ccc(-n2cc(-c3ccc(Cl)cc3)[nH]c2=S)cc1 | 8.55%
COc1ccc(-c2nnc(SCC(=O)N3CCCCC3)o2)c(OC)c1 | 9.16%
Cc1cc(C)cc(OCc2nnc(SCC(=O)N3CCN(c4ccccc4)CC3)o2)c1 | 7.04%
COc1ccc(S(=O)(=O)N2CCN(c3ccccc3)CC2)cc1C(=O)N1CCCC1 | 4.29%
N#CC1=C(N)Oc2n[nH]c(-c3cccs3)c2C1c1ccccc1C(=O)O (stereo not drawn) | 4.41%
C=CCc1ccc(OCC(O)CN2CCN(Cc3ccc(Cl)cc3)CC2)c(OC)c1.Cl (stereo not drawn) | -55.3%
COC(=O)C1=C(CSc2nccn2C)NC(=O)NC1c1cc(C)ccc1C (stereo not drawn) | 8.84%
CCc1ccc(OCC(=O)NNC(=O)C2CCN(c3ncnc4sc(C)c(C)c34)CC2)cc1 | 11.3%
Cc1ccc(C(C(=O)NCc2ccc(F)cc2)N(C(=O)c2csnn2)C2CC2)o1 (stereo not drawn) | -13.6%
COc1cc(OC)cc(C(=O)N2CCC(N3CCCCCC3)CC2)c1 | -2.49%
